Experimental data from the supplement of paper PMC10126150.
Values marked as one replicate rest on one cluster of the flow cell; about a third of the high ones do not repeat.

Each sequence was assayed on ATP (assay: switch fluorescence ratio, 500 uM ATP over buffer (Cy3 cluster intensity, sum of 5 cycles each) (fold (ratio)); higher = stronger signal-on switching upon ATP binding; sequences stand for … in TCGTCGGCAGCGTCAGATGTGTATAAGAGACAGTTTTTTTTTTTTTTTTTTTTTTTTT…TC). Conditions: aptamer strand: ATP DNA aptamer (quencher-CACCTGGGGGAGTATTGCGGAGGAAGG + anchor), 100 nM annealed; ATP concentration: 500 uM; one replicate.
Method in brief: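 Values give the fluorescence ratio for each switch-domain sequence, averaged from per-cluster ratios of summed target-cycle to summed buffer-cycle Cy3 intensity. The Cy3-labelled switching-strand clusters sat on a modified Illumina MiSeq flow-cell, were annealed to 100 nM quencher-labelled ATP aptamer, and were imaged in selection buffer, then after 15 min with 500 uM ATP at 22 °C. Five cycles ran with NaOH stripping and re-annealing between them, and clusters outside 100-1000 RFU were excluded.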
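Further: ATP exposure 15 min at 22 °C before imaging.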

Sequence | switch fluorescence ratio
GGGTGTTATC | 1
GGGTTACG | 1.01
GGGTTACGGA | 1
GGGTTAGGG | 1.06
GGGTTATCTT | 1.02
GGGTTCCGAG | 1.06
GGGTTCGTGT | 1.04
GGGTTGGCGG | 0.977
GGGTTGTACG | 1.08
GGGTTTAA | 0.996
GGGTTTAACG | 0.958
GGGTTTTCCT | 1.03
GGTAAGAGTG | 0.98
GGTAAGGAGT | 1
GGTAATAAAG | 0.987
GGTAATACG | 1.08
GGTAATATTC | 1.04
GGTAATCGGG | 0.938
GGTAATGTAA | 1.09
GGTAATTCTA | 0.99
GGTACACTTC | 1.05
GGTACAGGTG | 2.82
GGTACCCCTG | 1.08
GGTACGTAAA | 1.18
GGTACGTAT | 0.958
GGTACGTTCG | 0.992

Sequence | switch fluorescence ratio
GGTACTGCGT | 1.07
GGTACTGGCT | 1.02
GGTAGAGCGG | 0.975
GGTAGAGCGT | 0.981
GGTAGATATT | 0.949
GGTAGCA | 0.976
GGTAGCTCTT | 0.978
GGTAGGACGA | 0.949
GGTAGGAGCG | 0.972
GGTAGGTACC | 0.983
GGTAGTCTTA | 0.948
GGTAGTTTGC | 1.03
GGTATATACT | 1.05
GGTATCAGAG | 1.02
GGTATCCACG | 1.05
GGTATCCTCG | 0.993
GGTATCTAAC | 1.02
GGTATGGTA | 0.999
GGTATTCTCT | 0.965
GGTATTGCCC | 0.947
GGTATTGGGT | 0.993
GGTATTGTCG | 0.946
GGTCAAATTA | 1.05
GGTCAACGTC | 1
GGTCAATGGG | 0.987
GGTCACGGGC | 0.949

Sequence | switch fluorescence ratio
GGTCACTGAA | 0.957
GGTCAGACGC | 1.06
GGTCAGGAGC | 0.952
GGTCAGTCGG | 0.993
GGTCATCCGG | 1
GGTCCCAAAC | 1.05
GGTCCCCTGA | 0.995
GGTCCTAATC | 1
GGTCCTATCA | 1.01
GGTCGAGGAA | 0.964
GGTCGAGGAG | 0.999
GGTCGCCAGC | 1.01
GGTCGCCCCC | 1
GGTCGGGCTC | 0.928
GGTCGTATTT | 0.977
GGTCTACAGC | 1.03
GGTCTATACG | 1.01
GGTCTATATT | 0.945
GGTCTCAGCA | 0.972
GGTCTCATGA | 1.01
GGTCTTAACA | 0.988
GGTCTTAATG | 1.02
GGTCTTGAA | 1
GGTGAAGGCT | 1.12
GGTGAATAAC | 0.999
GGTGAATACC | 0.949

Sequence | switch fluorescence ratio
GGTGACATTG | 1.03
GGTGACGCAT | 1.19
GGTGACGCTT | 1.02
GGTGAGTGTA | 0.987
GGTGATGGA | 1.07
GGTGCAACGC | 0.986
GGTGCCGGCG | 1.05
GGTGCCTCAT | 1
GGTGCGATGT | 1.02
GGTGCGTCTT | 0.914
GGTGCTAGCC | 1.01
GGTGCTCGCC | 0.999
GGTGCTGCAA | 1.25
GGTGGAAATT | 1.07
GGTGGAGCTT | 0.964
GGTGGAGGC | 0.98
GGTGGCAATG | 0.984
GGTGGCCAAA | 0.986
GGTGGCTAGA | 0.973
GGTGGGCGAC | 1.03
GGTGGGGTT | 0.972
GGTGGTTCGG | 0.982
GGTGTAAC | 0.949
GGTGTACCA | 0.958
GGTGTCATGT | 0.973
GGTGTCGCGA | 0.969

Sequence | switch fluorescence ratio
GGTGTGCCGC | 0.803
GGTGTGCGAG | 0.986
GGTGTGCGCA | 0.969
GGTGTGGACG | 0.907
GGTGTGGTGT | 1.02
GGTGTTTAGG | 1.05
GGTTAAGGCT | 1.02
GGTTAAGGTA | 1
GGTTAAGTCG | 0.987
GGTTACATGA | 1.03
GGTTACGACT | 0.973
GGTTATACCT | 1.04
GGTTATCGTG | 0.997
GGTTATCTGT | 0.993
GGTTATGTGA | 1.02
GGTTCAATTA | 0.931
GGTTCACTCG | 1.1
GGTTCATGCG | 1.03
GGTTCCAAGT | 1.07
GGTTCCGAAT | 1.06
GGTTCCGGTT | 0.982
GGTTCCGTTG | 1
GGTTCGAGTT | 0.981
GGTTCTTATC | 1.01
GGTTGACTTT | 0.955
GGTTGATGAG | 0.939

Sequence | switch fluorescence ratio
GGTTGCGACT | 1.02
GGTTGCGGGC | 1.03
GGTTGGACGC | 1.01
GGTTGGGC | 1.02
GGTTGGGCAT | 1.02
GGTTGGGCCA | 1.01
GGTTGGGTCT | 0.991
GGTTGTACTT | 0.971
GGTTGTCTGT | 1
GGTTTCTTTC | 1.02
GGTTTGAAGG | 1
GGTTTGATGG | 1.02
GGTTTGTCCT | 0.987
GGTTTGTTTC | 0.993
GGTTTTATTA | 1.03
GGTTTTCAGA | 0.993
GGTTTTCAGG | 1.01
GGTTTTGAAT | 1.01
GGTTTTGCTC | 0.989
GGTTTTTGAT | 1.02
GTAAAAACGC | 1.07
GTAAAAAGGT | 1.01
GTAAAATGAC | 1.01
GTAAACATCC | 1.21
GTAAACGAAA | 1.01
GTAAACTTCG | 1.11

Sequence | switch fluorescence ratio
GTAAATCAA | 1.01
GTAAATGAGG | 1.01
GTAAATGT | 0.968
GTAACATCGG | 1.04
GTAACGATGT | 1.01
GTAAGATACC | 1.07
GTAAGGCCAG | 1
GTAAGTACAG | 1.36
GTAAGTACAT | 1.26
GTAAGTGATC | 1.01
GTAATACGGG | 1.39
GTAATATAGA | 1.02
GTAATATGAG | 1.07
GTAATCGGC | 0.971
GTAATTATAA | 1.01
GTAATTCTGC | 0.999
GTACAGTGTT | 1.01
GTACGATCCT | 1.01
GTACGCAAGT | 1.16
GTACGCAGGC | 2.7
GTACGGGGCT | 1.01
GTACGTTTAG | 1.05
GTACTAAACC | 1.14
GTACTAGGGT | 1
GTAGAACGAT | 1.03
GTAGACCGCA | 1.17

Sequence | switch fluorescence ratio
GTAGATTCAC | 1.01
GTAGCCAAGT | 1.03
GTAGCCGAAA | 1.03
GTAGCCGATG | 1
GTAGGAATTG | 1.04
GTAGGAGCAG | 1.05
GTAGGAGCGA | 0.973
GTAGGGATTG | 0.995
GTAGGGTCGG | 1.03
GTAGGGTCTC | 1
GTAGGGTGAA | 1
GTAGGTACGG | 1.04
GTAGGTGGAG | 0.974
GTAGTATGAC | 1.02
GTAGTCAACA | 0.996
GTAGTGAATC | 1.03
GTAGTGAGGT | 1.02
GTAGTGAGTC | 1
GTAGTTGTCA | 1.01
